Source: PubChem BioAssay AID504832 (National Center for Advancing Translational Sciences (NCATS), 2011)
Hit rate of the full screen: of about 310,000 compounds, about 18,000 (5.8%) were called active. The shares of active, inactive and inconclusive entries below differ from those in the screen. The call rests on the fitted dose curve; in most records, active means well fitted inhibition curve with a large enough effect; inconclusive means small, poorly fitted or top-dose-only effect, or another doubt; inactive means no such curve, though single readings can be large or run the other way. No potency is given beside an inconclusive call; the fits are too rough.

test: Primary qHTS for delayed death inhibitors of the malarial parasite plastid, 48 hour incubation; conditions: P. falciparum luciferase growth in erythrocytes; series mostly up to 28.7 µM
Outline: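 Parasite viability was followed by luminescence of a genomically integrated firefly luciferase. Cultures held 0.1% parasitemia at 2% hematocrit (final), incubated under 5% CO2 at 37 C.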
Potency means the concentration at half of the fitted maximal effect; tags describe the fitted curve by direction and shape.

Row | SMILES | Potency
1 | Cc1cccc(C)c1NC(=O)CN(C)C(=O)CN1C(=O)NC2(CCCC2)C1=O | inactive
2 | Cc1ccc(NC(=O)CSc2nc(=O)n(CCCN3CCOCC3)c3c2CCCC3)cc1F | inconclusive [inhibitor, single point]
3 | COc1ccc(-n2c(/C=C/c3ccc(O)c(OC)c3)nc3ccccc3c2=O)cc1 | inconclusive [inhibitor, single point]
4 | Cc1ccccc1S(=O)(=O)Cc1ccc(C(=O)N2CCN(c3ccc(F)cc3)CC2)o1 | inconclusive [inhibitor, partial curve]
5 | O=C(CSc1nnc(Cc2ccccc2)o1)N1CCCc2ccccc21 | inactive
6 | Cc1ccccc1-c1ncc(CN2CCC(CO)(CCCc3ccccc3)CC2)cn1 | inconclusive [inhibitor, single point]
7 | Nc1nsnc1C(=O)NCCO | inactive
8 | Cc1cc(C)cc(NC(=O)C(Nc2ccccc2)c2ccccc2)c1 (stereo not given) | inconclusive [inhibitor, full curve, poor fit]
9 | Oc1ccc(N2CCN(C(=S)NCc3ccccc3)CC2)cc1 | inconclusive [inhibitor, single point]
10 | O=S(=O)(NCCCSc1ccccc1)c1ccccc1F | inactive
11 | CC(C)c1ccc(NC(=O)NCc2ccccn2)cc1 | inactive
12 | Nc1ccc2nc(SCC(=O)Nc3ccc(N4CCOCC4)c(Cl)c3)sc2c1 | inactive
13 | CC(NC(=O)Cn1cccc1)c1ccccc1 (stereo not given) | inactive
14 | Cc1nn(CC(=O)NCCCN2CCN(Cc3ccccc3)CC2)c(=O)c2cc(-c3ccccc3)nn12 | inconclusive [inhibitor, single point]
15 | CCN1CCCC1CN(Cc1cc2ccc(C)cc2[nH]c1=O)C(=S)Nc1ccc(OC)cc1OC (stereo not given) | inconclusive [inhibitor, single point]
16 | C=CCN(CC=C)C(=S)Nc1ccc2nsnc2c1 | active: 8.28 µM
17 | Fc1ccc(CSc2nc3ncccc3[nH]2)cc1 | inconclusive [inhibitor, single point]
18 | CCC1(c2ccccc2)NC(=O)N(CC(=O)Nc2cccc(S(=O)(=O)N3CCCC3)c2)C1=O (stereo not given) | inconclusive [inhibitor, single point]
19 | CCOc1ccc(-n2cc(C(=O)N3CCCCCC3)c3cc(OC)c(OC)cc3c2=O)cc1 | inconclusive [inhibitor, single point]
20 | COc1ccc(-c2nn(-c3ccccc3)cc2/C=N/NC(=O)c2cccc(S(=O)(=O)Nc3ccccc3OC)c2)cc1 | active: 3.29 µM
